# Measurements reported in PubChem BioAssay AID686979 (National Center for Advancing Translational Sciences (NCATS), 2013).
# About 50,000 (12%) of roughly 420,000 compounds were called active. The shares of active, inactive and inconclusive entries below differ from those in the screen. Calls come from the whole dose curve; as a rule, active = well fitted inhibition curve with a large enough effect; inconclusive = small, poorly fitted or top-dose-only effect; inactive = flat fitted curve, though single readings scatter. Potencies of inconclusive entries are left out as doubtful fits.
# Test: qHTS for Inhibitors of human tyrosyl-DNA phosphodiesterase 1 (TDP1): qHTS in cells in presence of CPT; note: nearly all actives have a fitted effect of over 55% in size
# Conditions: chicken DT40 Tdp1-/-;hTDP1 cells + 20 nM CPT, ATP luminescence, 48 h; activity change, negative = growth inhibition: at 46.2 µM (top of the series) unless noted
# Summary of the method: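 Cell growth measured by CellTiter-Glo luminescence after a minimum 48 h, 37 C compound exposure with 20 nM CPT in Tdp1-knockout DT40 cells stably expressing hTDP1, seeded 400/well; qHTS titration format.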
# % is set by controls: 0 for no effect and ±100 for the full control effect; potency is the fitted concentration of half-maximal effect; tags give direction and shape of the fitted curve.
SMILES,"activity change, negative = growth inhibition",Potency
Cc1cc(C(=O)CSc2nnc(N)s2)c(C)n1CCc1ccc(F)cc1,inconclusive: -34.3% [inhibitor],
CC1CCN(c2nc(-c3ccco3)c3c(c2C#N)CC(C)(C)OC3)CC1,,"inconclusive [inhibitor, single point]"
O=C(Nc1cccnc1)c1cc(-c2cccc(Cl)c2)on1,,"inconclusive [inhibitor, single point]"
O=C(NCc1ccc(F)cc1)c1cc(-c2ccc(Cl)cc2)n[nH]1,,active: 7.31 µM
O=C(c1ccc(Cl)c(S(=O)(=O)Nc2ccccc2C(=O)N2CCc3ccccc3C2)c1)N1CCc2ccccc2C1,,"inconclusive [inhibitor, single point]"
Cc1cc(C)c(-n2c(SCc3nc4ccccc4s3)n[nH]c2=O)c(C)c1,,"inconclusive [inhibitor, single point]"
Cc1c(C(=O)Nc2nccs2)oc2c(Cl)cccc12,,"inconclusive [inhibitor, partial curve]"
COC(=O)[C@@]1(Sc2ccc(OC)cc2)CC(=O)N[C@@H]1c1ccccc1,,inactive
COc1cccc(-c2ncc3ccccc3c2COC(=O)N2CCCCC2)c1,,"inconclusive [inhibitor, single point]"
COc1ccc(S(=O)(=O)N2CCCCC2c2cc(C(=O)NC(C)C)no2)cc1 (stereo not given),,inactive
CCOC(=O)[C@]12CCCC=C1N(Cc1ccc(Cl)cc1Cl)C(=O)[C@H](CC(=O)NCc1cccs1)C2,,"inconclusive [inhibitor, single point]"
CC1CCCN(C(=O)C2CCCN(S(=O)(=O)c3cccc4nsnc34)C2)C1 (stereo not given),,"inconclusive [inhibitor, single point]"
O=C(O)c1cccc(Nc2ncnc3scc(-c4ccccc4)c23)c1,,"inconclusive [inhibitor, single point]"
CC(C)(C)NC(=O)C(c1ccncc1)N(Cc1ccc(F)cc1)C(=O)c1ccc(-c2ccccc2)[nH]1 (stereo not given),,inactive
Cc1ccc(NC(=S)NC(=O)c2ccc(F)cc2)cc1S(=O)(=O)Nc1ccccc1Cl,,"inconclusive [inhibitor, single point]"
OCCN1CCN(C2CCC(c3ccc(F)cc3)c3ccc(F)cc32)CC1 (stereo not given),,"inconclusive [inhibitor, partial curve, poor fit]"
Cc1ccc(C[n+]2ccccc2)cc1,,active: 8.2 µM
COc1ccc(-n2nc([N+](=O)[O-])c(=NCCc3ccccc3)n2O)cc1,,active: 16.4 µM
CCC(C)NC(=O)CCSc1nc(-c2ccc(OC)cc2)cc(C(F)(F)F)n1 (stereo not given),,"inconclusive [inhibitor, single point]"
Cc1ccc2cccc(OCCCOc3ccccc3CO)c2n1,,"inconclusive [inhibitor, single point]"
CCCN(C)C1CN(Cc2cn(Cc3ccc(Cl)cc3)nn2)S(=O)(=O)C1 (stereo not given),,inactive
Cc1ccc(C)c(N2CCN(C(=O)CCCn3c(=O)c4cccn4c4cccnc43)CC2)c1,,"inconclusive [inhibitor, single point]"
CN(C)Cc1nnnn1-c1cccc(-n2nnnc2CN(C)C)c1,,inactive
O=C(CSc1nnc(-c2ccccc2F)n1C1CC1)N1CCCC1,,inactive

SMILES,"activity change, negative = growth inhibition",Potency
Cc1ccc2nc(NC(=O)Cn3nc(C)c([N+](=O)[O-])c3C)sc2c1,,"inconclusive [inhibitor, single point]"
NC(=O)c1cc([N+](=O)[O-])ccc1NCc1ccc(N)cc1,,"inconclusive [inhibitor, partial curve, poor fit]"
N#Cc1ccc(OCC(=O)NNC(=S)NC(=O)C2CC2)cc1,,"inconclusive [inhibitor, single point]"
Cc1cccc(C)c1N1CCN(CCn2c(=S)[nH]c3ccccc3c2=O)CC1,,"inconclusive [inhibitor, single point]"
CCOC(=O)[C@]12CCC=C1N(CCC1=CCCCC1)C(=O)[C@H](CC(=O)NCc1ccccc1)C2,,"inconclusive [inhibitor, single point]"
O=C1c2cccc3cccc(c23)C(=O)N1OS(=O)(=O)c1ccc(Cl)cc1,,"inconclusive [inhibitor, single point]"
O=C(Cc1ccc(OCc2ccccc2)cc1)NO,,"inconclusive [inhibitor, single point]"
COc1ccc(-c2[nH]ncc2CN(C)C(C)c2cccs2)c(F)c1 (stereo not given),,active: 16.4 µM
O=C(OCC(=O)N1CCCC1=O)c1ccc(Cl)cc1[N+](=O)[O-],,inactive
C=CCOc1c(CNc2ccc3[nH]c(=O)[nH]c3c2)cccc1OC,,inactive
Cc1ccc(C(=O)Nc2nnc(S(=O)(=O)N3CCc4ccccc43)s2)cc1,,inactive
Cc1ccccc1C(=O)Oc1c(Sc2ccccc2)c(C)nn1C(C)(C)C,,"inconclusive [inhibitor, single point]"
O=[N+]([O-])c1cccc(-c2ccc(SCc3cccnc3)nn2)c1,,"inconclusive [inhibitor, single point]"
O=C(NCCN1CCOCC1)c1cc(-c2ccc(F)cc2)nc2ccccc12,,inactive
COc1ccc(C2N(C(=O)c3ccccc3)CCN2C(=O)c2ccc(C)cc2)cc1 (stereo not given),,active: 29.1 µM
O=S1(=O)NC2c3ccccc3CC2O1 (stereo not given),,active: 11.6 µM
CCN(c1ccccc1)S(=O)(=O)c1cccc(C(=O)Nc2cccc(C)n2)c1,,active: 23.1 µM
Cc1cccc(N2CCN(C(=O)CCn3c(=O)[nH]c4ccsc4c3=O)CC2C)c1 (stereo not given),,"inconclusive [inhibitor, single point]"
CCOc1ccc(NC(=O)c2cnc(Nc3ccccc3OC)c3ccccc23)cc1,,"inconclusive [inhibitor, partial curve, poor fit]"
CCOc1ccc(NC(=O)c2oc3ccccc3c2NC(=O)c2cc(C)cc(C)c2)cc1,,inactive
CCOc1ccccc1C(=O)Nc1cccc(-c2ccc3nncn3n2)c1,,active: 23.1 µM
CCOC(=O)CSc1nc2sc3c(c2c(=O)n1-c1ccccc1)CCC(C(C)(C)C)C3 (stereo not given),,inactive
Clc1ccc(CSc2cnnc3ccccc23)cc1Cl,,"inconclusive [inhibitor, partial curve]"
CC(C)Oc1ccc(CNC(=O)c2cccc(NC(=O)N3CCSc4ncccc43)c2)cc1,,"inconclusive [inhibitor, single point]"

SMILES,"activity change, negative = growth inhibition",Potency
CSCC[C@H](NC(=O)OC(C)(C)C)c1nnc(SCc2ccccc2)o1,,"inconclusive [inhibitor, single point]"
N#CC(C#N)=C1C=C2C=C(N3CCCCC3)CCC2CC1 (stereo not given),,active: 25.9 µM
Brc1cc2c(cc1CN1CCc3ccccc3C1)OCO2,,"inconclusive [inhibitor, single point]"
CCOC(=O)/C=C/c1ccc2c(c1)S(=O)(=O)N(C1CCCC1)[C@H]2CC(=O)OCC,,"inconclusive [inhibitor, single point]"
CN(CCOc1ccccc1)CC(=O)Nc1cc([N+](=O)[O-])ccc1Cl,,inactive
CCOc1ccc(CCNC(=O)CCSCc2ccc(Cl)cc2)cc1OCC,,"inconclusive [inhibitor, single point]"
O=C(NCCC1=CCCCC1)C1COc2ccccc2O1 (stereo not given),,"inconclusive [inhibitor, single point]"
NNC(=O)CCS(=O)(=O)c1ccc2ccccc2c1,,inactive
CN(C)Cc1ccccc1-c1nc(NCc2ccccc2)c2ccccc2n1,,active: 16.4 µM
CC1(c2ccccc2)CC(C)(C)N2C(=O)/C(=C3\SC(=S)NC3=O)c3cccc1c32 (stereo not given),,active: 23.1 µM
N#C/C(=C\C=C\c1ccccc1)C(=O)NCc1cccnc1,,active: 25.9 µM
Cc1cc(-c2ccc(S(=O)(=O)N3CCN(c4ccccc4F)CC3)s2)on1,,"inconclusive [inhibitor, single point]"
N#CC1=C(N)OC2=C(C(=O)CC(c3ccco3)C2)C1c1ccc(OCc2c(F)cccc2Cl)cc1 (stereo not given),,"inconclusive [inhibitor, single point]"
O=C(Nc1cccc(Br)c1)N1CCC(CN2CCCCCC2)CC1,,"inconclusive [inhibitor, single point]"
Cc1ccc(S(=O)(=O)CCC(=O)N(Cc2nnc(-c3ccc(Cl)cc3)o2)C2CC2)cc1,,"inconclusive [inhibitor, single point]"
CC(=O)Nc1ccc(CN(C)c2c(C)nc3ccc(C(=O)Nc4ccc(Cl)c(Cl)c4)cn23)cc1,,"inconclusive [inhibitor, single point]"
CCOC(=O)c1cc(-c2ccccc2)n(-c2cccc(C(=O)Nc3cc(OC)cc(OC)c3)c2)c1C,,inactive
CCCc1cnc(N2CCN(C(=O)c3ccc(OC)cc3)CC2)nc1,,"inconclusive [inhibitor, single point]"
O=C(NCCc1nc(-c2ccccc2Cl)no1)c1ccccc1,,"inconclusive [inhibitor, single point]"
CCOC(=O)C1(CCOc2ccccc2)CCN(Cc2nccn2CC)CC1,,"inconclusive [inhibitor, single point]"
Cc1ccc(OCCOc2cccc3ccc(C)nc23)c([N+](=O)[O-])c1,,"inconclusive [inhibitor, single point]"
CC(C)N1C(=O)c2ccccc2N(Cc2ccccc2)S1(=O)=O,,"inconclusive [inhibitor, single point]"
